The values that follow come from PMC4336329 (PLoS ONE, 2015).

The structures appear in SMILES notation. In all, about 310,000 compounds went through this assay and about 14,000 (4.5%) showed an effect of 50% or more. Effects have a minus sign here. The list shows a part of the results.
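Note: peak tail current of the secondary pulse compared with the same well before compound.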

The target of the assay is human ether-à-go-go-related gene (hERG) potassium channel (human, UniProt Q12809). In words: primary screen, population patch clamp on CHO cells stably expressing hERG.
Sequence of human ether-à-go-go-related gene (hERG) potassium channel (Q12809 whole entry, looked up): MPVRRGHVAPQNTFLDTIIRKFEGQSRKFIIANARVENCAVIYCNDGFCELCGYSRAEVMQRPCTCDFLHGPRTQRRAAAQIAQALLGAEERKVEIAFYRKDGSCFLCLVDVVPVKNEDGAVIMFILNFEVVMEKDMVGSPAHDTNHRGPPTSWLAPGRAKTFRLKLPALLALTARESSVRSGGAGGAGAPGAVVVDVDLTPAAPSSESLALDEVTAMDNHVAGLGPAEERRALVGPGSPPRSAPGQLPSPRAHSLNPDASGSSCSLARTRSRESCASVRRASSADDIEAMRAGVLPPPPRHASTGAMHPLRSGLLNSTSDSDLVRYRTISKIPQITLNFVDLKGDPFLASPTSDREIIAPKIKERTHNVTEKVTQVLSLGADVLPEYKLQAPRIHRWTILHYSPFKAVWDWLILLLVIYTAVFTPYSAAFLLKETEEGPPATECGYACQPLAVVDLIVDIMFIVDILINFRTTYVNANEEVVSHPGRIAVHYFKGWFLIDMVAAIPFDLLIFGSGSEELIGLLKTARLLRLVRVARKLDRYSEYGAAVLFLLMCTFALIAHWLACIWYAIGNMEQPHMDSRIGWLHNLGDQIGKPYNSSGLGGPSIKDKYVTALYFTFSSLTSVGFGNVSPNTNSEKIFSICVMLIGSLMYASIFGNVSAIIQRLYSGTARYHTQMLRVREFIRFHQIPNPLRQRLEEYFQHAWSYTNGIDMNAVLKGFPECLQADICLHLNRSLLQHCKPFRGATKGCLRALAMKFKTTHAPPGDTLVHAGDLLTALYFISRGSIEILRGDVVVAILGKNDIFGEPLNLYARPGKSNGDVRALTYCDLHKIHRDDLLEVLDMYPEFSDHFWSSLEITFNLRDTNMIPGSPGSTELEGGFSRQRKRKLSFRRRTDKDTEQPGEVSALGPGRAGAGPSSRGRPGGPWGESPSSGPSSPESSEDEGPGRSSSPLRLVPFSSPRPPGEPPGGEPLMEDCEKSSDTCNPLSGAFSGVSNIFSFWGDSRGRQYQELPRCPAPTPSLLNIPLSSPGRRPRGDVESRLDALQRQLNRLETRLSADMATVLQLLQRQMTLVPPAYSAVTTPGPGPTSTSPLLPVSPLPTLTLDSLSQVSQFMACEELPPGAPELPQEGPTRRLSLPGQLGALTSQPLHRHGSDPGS
Turning to `COc1ccc(C(=O)Nc2ccccc2C(=O)Nc2ccccn2)cc1`, the “hERG current change (%, negative = inhibition) at 10uM” value is listed as 12.7%.

As for `O=C1/C(=C/c2ccc(F)cc2)SC(=S)N1Nc1ncc(C(F)(F)F)cc1Cl`, the “hERG current change (%, negative = inhibition) at 10uM” value is given as 8.08%.

For `CCCCOc1ccc(/C=C/C(=O)NC2=Nc3ccccc3NC(C)=C2C(=O)OCC)cc1OC`, the “hERG current change (%, negative = inhibition) at 10uM” value came to 1.66%.

Regarding `O=C1CC[C@H](N2C(=O)c3ccccc3C2=O)C(=O)N1`, the “hERG current change (%, negative = inhibition) at 10uM” value turned out to be 17.1%.

As to `O=C(NCC1CCCO1)c1cc(-c2ccc(F)cc2)no1` (stereo not shown), the “hERG current change (%, negative = inhibition) at 10uM” value is 0.634%.

Take `NC(=O)C(=O)N/N=C/c1cccc(C(F)(F)F)c1`: the “hERG current change (%, negative = inhibition) at 10uM” value was determined as 2.49%.

`O=C1CC(c2cccs2)c2cc3c(cc2N1)OCCO3` (stereo not shown): the “hERG current change (%, negative = inhibition) at 10uM” value amounted to 2.53%.

In the case of `C/C(=N\NC(=O)c1cc2c(s1)CCC(C)C2)c1cccnc1` (stereo not shown), the “hERG current change (%, negative = inhibition) at 10uM” value is 4.68%.

Take `Cc1ccc(-c2cc(-c3ccc(F)cc3)c(C#N)c(N)n2)o1`: the “hERG current change (%, negative = inhibition) at 10uM” value came out at 0.139%.

Turning to `COc1ccc(S(=O)(=O)N(C)CC(=O)Nc2cccc(C(C)=O)c2)cc1`, the “hERG current change (%, negative = inhibition) at 10uM” value amounted to 4.78%.

`O=[N+]([O-])c1cc(Cl)cc(/C=N/NC(=S)Nc2cc(S(=O)(=O)N3CCOCC3)ccc2Cl)c1O`: the “hERG current change (%, negative = inhibition) at 10uM” value was determined as 24.3%.

For `O=C(N/C(=C\c1ccc2c(c1)OCO2)C(=O)N1CCOCC1)c1cccs1`, the “hERG current change (%, negative = inhibition) at 10uM” value is -42.8%.

On to `Cc1nnc(SCC(=O)Nc2nccs2)o1`, for which the “hERG current change (%, negative = inhibition) at 10uM” value is 6.02%.

Take `O=C(NCCN1CCCCC1)c1ccc(Oc2cc(Cl)cc(Cl)c2)o1`: the “hERG current change (%, negative = inhibition) at 10uM” value is reported as -54.8%.

For the compound `Cc1ccc(N(CC(=O)NC2CCCC2)C(=O)c2nsc(Cl)c2Cl)cc1`, the “hERG current change (%, negative = inhibition) at 10uM” value was -1.67%.

On to `COC(=O)CC(NS(=O)(=O)c1cccs1)c1cccc2ccccc12` (stereo not shown), for which the “hERG current change (%, negative = inhibition) at 10uM” value worked out at 1.97%.

As for `CSc1nc2sc3c(c2c(=O)[nH]1)CCC(C)C3` (stereo not shown), the “hERG current change (%, negative = inhibition) at 10uM” value is given as 22.3%.

As to `CCOc1ccc(/C=N/NC(=O)C2(O)c3ccccc3-c3ccccc32)cc1`, the “hERG current change (%, negative = inhibition) at 10uM” value worked out at 4.13%.

For the compound `CC1CCN(CC(=O)Nc2ccccc2-c2ccccc2)CC1`, the “hERG current change (%, negative = inhibition) at 10uM” value is given as -25.1%.

As for `COc1ccc(Br)cc1S(=O)(=O)NCc1ccccc1`, the “hERG current change (%, negative = inhibition) at 10uM” value was -8.37%.

With `COc1ccc([N+](=O)[O-])cc1NC(=O)Cn1ccsc1=N.Cl`, the “hERG current change (%, negative = inhibition) at 10uM” value was -11%.

On to `Cc1oc2cc3oc(=O)c(CCC(=O)NCCCN4CCCC4=O)c(C)c3cc2c1C`, for which the “hERG current change (%, negative = inhibition) at 10uM” value is listed as -8%.

Consider `CCOc1ccc(CCNC(=O)c2cc(C)on2)cc1OCC`, for which the “hERG current change (%, negative = inhibition) at 10uM” value was 11.9%.

For `COc1ccc(N2CCN(C(=O)COc3ccc4ccccc4c3)CC2)cc1`, the “hERG current change (%, negative = inhibition) at 10uM” value turned out to be 5.36%.

As for `CC1(C)Cc2ccccc2C(N/N=C/c2ccc(Cl)cc2)=N1`, the “hERG current change (%, negative = inhibition) at 10uM” value is on record as -2.4%.

Turning to `Cc1cccn2c(=O)c(/C=C(\C#N)C(N)=O)c(N3CCN(c4ccccc4)CC3)nc12`, the “hERG current change (%, negative = inhibition) at 10uM” value is recorded as -48.8%.

For the compound `CCCCN(CC)Cc1ccc(CNC(=S)Nc2cccc(F)c2)o1`, the “hERG current change (%, negative = inhibition) at 10uM” value is listed as -43.7%.

Take `O=C(Nc1ccccc1Cl)Nc1cccc2cccnc12`: the “hERG current change (%, negative = inhibition) at 10uM” value is listed as 14.9%.

`CC(=O)C1=C(O)C(=O)N(Cc2cccnc2)C1c1ccccc1Cl` (stereo not shown): the “hERG current change (%, negative = inhibition) at 10uM” value was 7.25%.

Take `CNc1nc(C)c(C(=O)OCc2ccccc2)s1`: the “hERG current change (%, negative = inhibition) at 10uM” value came out at 15.9%.

For `O=C(Nc1ccccc1)NC1CCS(=O)(=O)C1` (stereo not shown), the “hERG current change (%, negative = inhibition) at 10uM” value is reported as -0.437%.

For the compound `CC(C)C(CC(=O)NCc1ccco1)c1ccco1` (stereo not shown), the “hERG current change (%, negative = inhibition) at 10uM” value is 19.6%.

For `NC(=O)c1ccc(OCC2CCCO2)cc1` (stereo not shown), the “hERG current change (%, negative = inhibition) at 10uM” value came out at 11.4%.

Consider `C/C(N)=C(/C#N)C(=O)COC(=O)CCS(=O)(=O)c1ccccc1`, for which the “hERG current change (%, negative = inhibition) at 10uM” value stood at 12.1%.

Consider `C/C(=N/NC(=O)c1sc(NS(=O)(=O)c2ccccc2)nc1C)c1ccccc1`, for which the “hERG current change (%, negative = inhibition) at 10uM” value turned out to be 10%.

As to `O=C(c1ccco1)N1CCN(c2ncnc3c2[nH]c2ccc(Cl)cc23)CC1`, the “hERG current change (%, negative = inhibition) at 10uM” value was -65.2%.

For `COc1ccccc1OCC(=O)Nc1ccccc1C(=O)NCc1ccco1`, the “hERG current change (%, negative = inhibition) at 10uM” value was -10.4%.

As for `Cc1c(C=O)c2ccccn2c1C(=O)c1cccs1`, the “hERG current change (%, negative = inhibition) at 10uM” value was 0.847%.

Consider `CNC(C)C#Cc1ccc2sc3cc(OC)c(OC)cc3c(=O)c2c1` (stereo not shown), for which the “hERG current change (%, negative = inhibition) at 10uM” value came to 4.04%.

Turning to `O=C1/C(=C/c2cccnc2)SC(=S)N1CC1CCCO1` (stereo not shown), the “hERG current change (%, negative = inhibition) at 10uM” value is 22.7%.

For the compound `CC(=O)N1CCN(S(=O)(=O)c2cccc(C(=O)NC3CC3)c2)CC1`, the “hERG current change (%, negative = inhibition) at 10uM” value came to 14.9%.

In the case of `COc1ccc(C(=O)COC(=O)[C@H](C)Nc2ccc(C(F)(F)F)cc2[N+](=O)[O-])cc1`, the “hERG current change (%, negative = inhibition) at 10uM” value is listed as 15.9%.

Turning to `CC(=O)c1cnc2c(-c3cccc(Br)c3)cnn2c1C`, the “hERG current change (%, negative = inhibition) at 10uM” value worked out at 9.14%.

`CCCC(=O)NC(Nc1ccc(S(=O)(=O)Nc2cc(C)on2)cc1)(C(=O)OCC)C(F)(F)F` (stereo not shown): the “hERG current change (%, negative = inhibition) at 10uM” value was 23.5%.

Turning to `CCn1c2ccccc2c2cc(C3C(C#N)=C(N)Oc4n[nH]c(COC)c43)ccc21` (stereo not shown), the “hERG current change (%, negative = inhibition) at 10uM” value amounted to 11.4%.

Regarding `O=S(=O)(NCCCc1ccccc1)c1ccc(Br)cc1`, the “hERG current change (%, negative = inhibition) at 10uM” value is on record as -9.3%.

Regarding `Cc1ccn2cc(CC(=O)O)nc2c1`, the “hERG current change (%, negative = inhibition) at 10uM” value is -7.18%.

Take `CCOC(=O)C(CSCc1ccccc1)NC(=O)OC(C)(C)C` (stereo not shown): the “hERG current change (%, negative = inhibition) at 10uM” value is given as -14.8%.

`CCOc1ccc(NC(=O)CN2C(=O)CSc3ccc(S(=O)(=O)N4CCCC4)cc32)cc1`: the “hERG current change (%, negative = inhibition) at 10uM” value is reported as -21.2%.

As to `O=C(CN1CCCC1)N1CCCC(c2ccc(F)cc2)c2ccc(F)cc21.O=C(O)C(=O)O` (stereo not shown), the “hERG current change (%, negative = inhibition) at 10uM” value is -32%.

`CC1(C)CC(=O)c2cnc(NCc3ccco3)nc2C1`: the “hERG current change (%, negative = inhibition) at 10uM” value is given as 3.47%.

In the case of `Cc1ccc(CNS(=O)(=O)c2ccc3c(c2)NC(=O)C(C)S3)cc1` (stereo not shown), the “hERG current change (%, negative = inhibition) at 10uM” value was -1.22%.

`O=C(Nc1ccccn1)c1ccc(Cl)c([N+](=O)[O-])c1`: the “hERG current change (%, negative = inhibition) at 10uM” value is reported as 3.94%.

On to `O=[N+]([O-])c1ccc(C(O)CSC(=S)N2CCCCC2)cc1` (stereo not shown), for which the “hERG current change (%, negative = inhibition) at 10uM” value is reported as -3.13%.

Take `Cc1cc(C)c(NC(=O)CS)c(Cl)c1`: the “hERG current change (%, negative = inhibition) at 10uM” value came out at 6.4%.

For `O=C(CN1CCN(C(=O)c2ccccc2)CC1)Nc1cc(S(=O)(=O)N2CCCC2)ccc1Cl`, the “hERG current change (%, negative = inhibition) at 10uM” value is -32.8%.

Turning to `S=C1NC[C@H](Cc2ccccc2)N1CCc1cccc2ccccc12`, the “hERG current change (%, negative = inhibition) at 10uM” value was found to be 17.6%.

For the compound `O=C(N/N=C/c1ccc(O)cc1O)C(=O)N/N=C/c1ccc(O)cc1O`, the “hERG current change (%, negative = inhibition) at 10uM” value amounted to 14.1%.
